Drawing on the supplement of paper PMC10441789, this text covers antibody binding signal for 40 sequences.

The list shows a part of the results. Antibody binding of pooled human sera (four to six donors per pool; dilution not stated) to peptides of the Trypanosoma cruzi antigen TSSA on microarrays. Quantile-normalised fluorescence in arbitrary units, mean of duplicate arrays; higher = more binding. No active / inactive call. The uninfected pools are read here as the healthy donors of the same country. The strongest signals lie near the top of the scale (about 60,000).

In the first assay the test system is pooled sera of chronic Chagas disease patients, Colombia. In words: antibody binding signal (normalised fluorescence) (arbitrary fluorescence units); higher = stronger serum antibody binding to peptide. The method, then:
(§1)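 Microarray of 15-residue peptides over residues 30-55 of Trypanosoma cruzi TSSAII, each with 1 to 10 substitutions at naturally variable positions, probed with one serum pool per country.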
In turn, SGTDKKPATGETPSQ yielded an antibody binding signal of 4080.

The sequence SGKEKKTATGGAPSQ registered an antibody binding signal of 2450.

In turn, TDNKTAAGGTPSPPG showed an antibody binding signal of 3980.

Regarding KKPATGGAPSPPGAS, the antibody binding signal came out at 756.

Regarding KDKKPATGEAPSPSG, the antibody binding signal came out at 152.

KDNKAATGGTPSQPG returned an antibody binding signal of 1100.

On to SSTPPSGKENKPAAG, for which the antibody binding signal was determined as 440.

The sequence SGTENKTAAGETPSP registered an antibody binding signal of 401.

Regarding GTENKAATGETPSQS, the antibody binding signal amounted to 1300.

STPPSGTENKTAAGG registered an antibody binding signal of 335.

Regarding TENKTATGGAPSPSG, the antibody binding signal came out at 427.

PSGTDNKPAAGGTPS came in with an antibody binding signal of 5290.

For the sequence GTENKAATGGTPSPP, the antibody binding signal was 980.

Regarding GKEKKAATGETPSQP, the antibody binding signal came to 3550.

TEKKAAAGGAPSPSG: the antibody binding signal is 7780.

In the case of PPSGKDNKAATGEAP, the antibody binding signal came out at 544.

Regarding DKKPAAGEAPSPSGA, the antibody binding signal was 206.

The sequence GTDKKPAAGEAPSQS yielded an antibody binding signal of 7070.

For the sequence DNKPAAGGAPSPSGA, the antibody binding signal was 1750.

In the case of TEKKAAAGGAPSPPG, the antibody binding signal was found to be 7620.

In the case of PPSGKDKKPAAGEAP, the antibody binding signal was 884.

PPSGTEKKAATGEAP registered an antibody binding signal of 593.

The sequence NKAAAGETPSPSGAS gave an antibody binding signal of 295.

For TISTPPSGKDKKAAA, the antibody binding signal amounted to 384.

For KTATGETPSQSGASS, the antibody binding signal amounted to 165.

GKDKKAAAGEAPSQP: the antibody binding signal came out at 1070.

For the sequence GKEKKPAAGGAPSQP, the antibody binding signal worked out at 4140.

Take PSGTDNKAATGGAPS: the antibody binding signal is 935.

On to TPPSGKEKKPAAGGA, for which the antibody binding signal came to 752.

TEKKTATGEAPSQSG displayed an antibody binding signal of 362.

TDNKAAAGGTPSQPG yielded an antibody binding signal of 3120.

In the case of ENKAATGEAPSPSGA, the antibody binding signal worked out at 213.

In the case of KKTATGEAPSQSGAS, the antibody binding signal was 215.

The sequence GKDKKPATGEAPSPS came in with an antibody binding signal of 2900.

KENKAAAGGTPSPSG: the antibody binding signal is 1450.

For TDKKPATGETPSQSG, the antibody binding signal came to 282.

With DKKAATGETPSPSGA, the antibody binding signal stood at 194.

Turning to STPPSGKDKKAAAGE, the antibody binding signal stood at 438.

TISTPPSGKDNKTAA: the antibody binding signal was determined as 1970.

Turning to TPPSGTDNKAATGEA, the antibody binding signal stood at 915.

In another assay the test system is pooled sera of chronic Chagas disease patients, Mexico. The assay is described as above. The procedure:
as §1
With SGTDKKPATGETPSQ, the antibody binding signal stood at 394.

SGKEKKTATGGAPSQ came in with an antibody binding signal of 3570.

As for TDNKTAAGGTPSPPG, the antibody binding signal came to 290.

KKPATGGAPSPPGAS registered an antibody binding signal of 395.

As for KDKKPATGEAPSPSG, the antibody binding signal was determined as 175.

On to KDNKAATGGTPSQPG, for which the antibody binding signal was determined as 254.

Consider SSTPPSGKENKPAAG, for which the antibody binding signal was 14900.

For SGTENKTAAGETPSP, the antibody binding signal worked out at 313.

GTENKAATGETPSQS displayed an antibody binding signal of 1450.

The sequence STPPSGTENKTAAGG came in with an antibody binding signal of 3390.

Sequence TENKTATGGAPSPSG yielded an antibody binding signal of 444.

On to PSGTDNKPAAGGTPS, for which the antibody binding signal amounted to 1170.

Sequence GTENKAATGGTPSPP yielded an antibody binding signal of 1430.

GKEKKAATGETPSQP returned an antibody binding signal of 7520.

TEKKAAAGGAPSPSG showed an antibody binding signal of 1200.

PPSGKDNKAATGEAP had an antibody binding signal of 4090.

DKKPAAGEAPSPSGA: the antibody binding signal worked out at 249.

In turn, GTDKKPAAGEAPSQS had an antibody binding signal of 625.

Sequence DNKPAAGGAPSPSGA showed an antibody binding signal of 244.

Sequence TEKKAAAGGAPSPPG gave an antibody binding signal of 948.

PPSGKDKKPAAGEAP returned an antibody binding signal of 42600.

As to PPSGTEKKAATGEAP, the antibody binding signal turned out to be 1680.

Sequence NKAAAGETPSPSGAS displayed an antibody binding signal of 470.

In turn, TISTPPSGKDKKAAA showed an antibody binding signal of 44300.

For KTATGETPSQSGASS, the antibody binding signal worked out at 246.

Regarding GKDKKAAAGEAPSQP, the antibody binding signal stood at 849.

Regarding GKEKKPAAGGAPSQP, the antibody binding signal was 3680.

In the case of PSGTDNKAATGGAPS, the antibody binding signal was 740.

TPPSGKEKKPAAGGA returned an antibody binding signal of 37300.

As for TEKKTATGEAPSQSG, the antibody binding signal was determined as 967.

TDNKAAAGGTPSQPG showed an antibody binding signal of 219.

Turning to ENKAATGEAPSPSGA, the antibody binding signal worked out at 141.

With KKTATGEAPSQSGAS, the antibody binding signal worked out at 258.

In the case of GKDKKPATGEAPSPS, the antibody binding signal turned out to be 3130.

The sequence KENKAAAGGTPSPSG yielded an antibody binding signal of 128.

In turn, TDKKPATGETPSQSG showed an antibody binding signal of 222.

In turn, DKKAATGETPSPSGA gave an antibody binding signal of 334.

In turn, STPPSGKDKKAAAGE showed an antibody binding signal of 35600.

On to TISTPPSGKDNKTAA, for which the antibody binding signal came out at 16000.

TPPSGTDNKAATGEA came in with an antibody binding signal of 4820.
